# Measurements: PubChem BioAssay AID686979 (National Center for Advancing Translational Sciences (NCATS), 2013)
# Several values for one entry are separate records, joined by “and”; a condition that tells them apart may be missing. Identical values can stand only once. In all, about 420,000 compounds went through this assay and about 50,000 (12%) were called active. The shares of active, inactive and inconclusive entries below differ from those in the screen. Calls follow the shape of the dose curve; as a rule, active = well fitted inhibition curve with a large enough effect; inconclusive = small, poorly fitted or top-dose-only effect; inactive = flat fitted curve, though single readings scatter. Potencies of inconclusive entries are doubtful fits and often do not repeat.
# Experiment: qHTS for Inhibitors of human tyrosyl-DNA phosphodiesterase 1 (TDP1): qHTS in cells in presence of CPT; also: nearly all actives have a fitted effect of over 55% in size
# Conditions: chicken DT40 Tdp1-/-;hTDP1 cells + 20 nM CPT, ATP luminescence, 48 h; activity change, negative = growth inhibition: at 46.2 µM (top of the series) unless noted
# Outline: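 Cell growth measured by CellTiter-Glo luminescence after a minimum 48 h, 37 C compound exposure with 20 nM CPT in Tdp1-knockout DT40 cells stably expressing hTDP1, seeded 400/well; qHTS titration format.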
# % is scaled to controls: 0 for no effect and ±100 for the full control effect; potency is read from the fitted curve at half-maximal effect; tags tell the direction and shape of the fitted curve.
SMILES,Potency,"activity change, negative = growth inhibition"
COc1cccc(CNC(=O)c2oc3ccc4c(c3c2C)C(=O)CC(C)(C)O4)c1OC,"inconclusive: 23.1 µM [inhibitor, single point]",–
Cn1c(C(=O)N2CCCC(C(=O)NCc3cccs3)C2)cc2sccc21 (stereo not drawn),"inconclusive: 29.1 µM [inhibitor, single point]",–
c1ccc2c(NCC3CCCO3)nc(-c3ccncc3)nc2c1 (stereo not drawn),"inconclusive: 11.2 µM [inhibitor, partial curve]",–
CCOc1ccc(-c2cn3c(n2)sc2cc(C(=O)NCCCN(CC)CC)ccc23)cc1,active: 0.731 µM,–
Cc1cccc(CNC(=O)Cc2ccc(NC(=O)N3CCCCc4ccccc43)cc2)c1,"inconclusive: 29.1 µM [inhibitor, single point]",–
CCN(CC)CCn1c2c(c(SCC(=O)Nc3cccc(C(F)(F)F)c3)nc1=O)CCC2,"inconclusive: 18.4 µM [inhibitor, single point]",–
CCOC(=O)c1[nH]c(C)c(CCC(=O)NC(C)c2ccccc2)c1C (stereo not drawn),–,inactive: -1.49%
Cc1ccc(Cl)c(NC(=O)CCl)c1Cl,"inconclusive: 18.4 µM [inhibitor, single point]",–
COc1ccc(/C=C/C(=O)c2cc(F)ccc2OC(=O)c2ccccc2)cc1OC,active: 0.411 µM,–
CCOC(=O)c1ccc(NC(=O)C(C)N(c2ccc(OCC)cc2)S(C)(=O)=O)cc1 (stereo not drawn),"inconclusive: 20.6 µM [inhibitor, single point]",–
Cc1c(C(=O)Nc2ccc(F)c(F)c2)oc2ccc(S(=O)(=O)N(C)C3CCCCC3)cc12,active: 18.4 µM,–
COc1ccc(CNC(=O)c2cc3c(=O)n4cccc(C)c4nc3s2)cc1,–,inactive: 1.26%
CC(=O)C1=C(C)NC(SCc2ccc(C#N)cc2)=C(C#N)C1c1ccco1 (stereo not drawn),"inconclusive: 29.1 µM [inhibitor, single point]",–
COc1ccc(C(=O)Nc2ccc(C)c(S(=O)(=O)N3CCCCCC3)c2)cc1,"inconclusive: 29.1 µM [inhibitor, single point]",–
Cc1ccc(N(C)C(=O)Cn2cc(S(=O)(=O)N3CCCC3)c(S(=O)(=O)N3CCCC3)c2)cc1,–,inactive: 0.533%
CCC(C)[C@H](NC(=O)N1CC(=O)Nc2ccccc21)C(=O)N[C@@H](C(=O)O)c1ccccc1 (stereo partly drawn),–,inactive: -23.8%
COc1ncnc2c1ncn2CCCNc1ccc(C)c(C)c1,"inconclusive: 29.1 µM [inhibitor, single point]",–
O=C(Nc1ccc(N2CCCC2)c(Cl)c1)c1ccc([N+](=O)[O-])o1,active: 8.2 µM,–
COc1ccc(CCNC(=O)CN2C(=O)NC(Cc3c[nH]c4ccccc34)C2=O)cc1 (stereo not drawn),–,inactive: -27.4%
O=C(Nc1ccc(F)cc1)C1CCCN(c2ncnc3c2nc2n3CCCCC2)C1 (stereo not drawn),active: 13 µM,–
Cc1ccc(-c2nnc(CSc3nnc(COc4ccccc4)n3-c3ccccc3)o2)cc1,"inconclusive: 29.1 µM [inhibitor, single point]",–
Cc1ccc(C(=O)CSc2cnc3ccccc3n2)cc1C,"inconclusive: 29.1 µM [inhibitor, single point]",–

SMILES,Potency,"activity change, negative = growth inhibition"
Cc1ccc(C(=O)Nc2nc(-c3nnn(-c4cccc(Cl)c4C)c3C)ns2)cc1C,active: 25.9 µM,–
COc1cccc(-c2nc(CS(=O)(=O)CC(=O)NCCc3ccc(OC)c(OC)c3)c(C)o2)c1,"inconclusive: 29.1 µM [inhibitor, single point] and inconclusive: 16.4 µM [inhibitor, single point]",–
CC1Nc2ncnc(N3CCc4ccccc4C3)c2N(Cc2ccc(Cl)cc2)C1=O (stereo not drawn),"inconclusive: 29.1 µM [inhibitor, single point]",–
CCOC(=O)c1ccc(NC(=O)N2CCN(CCc3ccccc3)CC2)cc1,–,inactive: -18.7%
CC(=O)n1cc([C@@H]2C=C(C(=O)NCc3ccccc3)O[C@H](OCCCCO)C2)c2ccccc21,"inconclusive: 29.1 µM [inhibitor, single point]",–
C=CCOc1c(Cl)cc(C(=S)N2CCCC2)cc1OCC,active: 5.8 µM,–
CN(NC(=O)c1cccc(Cl)c1)c1nc(-c2ccccc2)nnc1C(F)(F)F,active: 18.4 µM,–
COc1cc(/C=C/c2ccc3cccc(O)c3n2)cc(Br)c1OC,active: 11.6 µM,–
Cc1ccc(S(=O)(=O)N(CC(=O)N2CCN(c3ccccc3F)CC2)C2CCCCC2)cc1,"inconclusive: 25.9 µM [inhibitor, single point]",–
CC1=C(C(=O)Nc2ccccc2C)C(c2ccc(C)o2)N2C(=O)CSC2=N1 (stereo not drawn),"inconclusive: 29.1 µM [inhibitor, single point]",–
Cc1cccc(C(=O)Nc2cccc(C(=O)N3CCOCC3)c2)c1,–,inactive: -2.11%
COc1ccccc1N1C(=O)CC(Sc2nccc(C)n2)C1=O (stereo not drawn),"inconclusive: 25.9 µM [inhibitor, single point]",–
CC(C)OCCCn1c(SCC(=O)Nc2ccccc2C(F)(F)F)nc2nccnc2c1=O,–,inactive: 0.793%
C=Cc1ccc(CSc2nnc(C)n3c2cc2occc23)cc1,"inconclusive: 20.6 µM [inhibitor, single point]",–
O=c1[nH]c(C2CCN(S(=O)(=O)c3ccc4c(c3)OCCO4)CC2)nc2c1nnn2Cc1ccccc1F,"inconclusive: 29.1 µM [inhibitor, single point]",–
COc1ccc(NC(=O)c2oc3c(c2C)-c2nn(Cc4ccccc4Cl)cc2CC3)cc1OC,active: 20.6 µM,–
Cc1cc(-c2nn3c(-c4ccccc4)nnc3s2)c2ccccc2n1,"inconclusive: 7.31 µM [inhibitor, partial curve, poor fit]",–
CC(=NCCCn1ccnc1)c1c(-c2ccccc2)[nH]n(-c2nc3ccccc3s2)c1=O,"inconclusive: 18.4 µM [inhibitor, single point]",–
CC1(C(=O)NS(=O)(=O)C2CC2)CCCN(C(=O)Cc2ccc3ccccc3c2)C1 (stereo not drawn),active: 9.2 µM,–
Cc1onc(-c2c(F)cccc2Cl)c1C(=O)OCC(=O)c1c(N)n(C)c(=O)n(C)c1=O,"inconclusive: 20.6 µM [inhibitor, single point]",–
COc1ccc(NS(=O)(=O)c2ccc3c(c2)CC(C)N3C(C)=O)c(OC)c1 (stereo not drawn),active: 18.4 µM,–
